# The other results are listed elsewhere or left out.
# B1: CrataBL (Crataeva tapia), C0HJA4 (protein)
# chain: AILTGVPYYILPSTSRAGFSPDNLRKNTSQLSCPLDLITQLRFPRRIGVPVIFTPQNSSLKVVPLSHNLNIHTCSDLWFCPESKIWTVKSSLTHGGSVVTTGGTFRSLGSWFRIERHGDSYKLVHCPRGSTPCRDVGIETVGGGGRRYLAPRDRPLAVRFTRASG
# Legend:
# Test in all cases: glycan array binding signal (z-score within array); higher = stronger binding
# Details in all cases: glycan notation: IUPAC condensed, linker removed
# [1] = target: Fuc(a1-2)[GalNAc(a1-3)]Gal(b1-3)GlcNAc(b1-3)GalNAc
# How it was run: (§1)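 Glycan array binding is given as a within-array Z-score, which can be read as non-binding when negative. The arrays, 3228 of them, came from the Consortium for Functional Glycomics database and were retained only where the protein sequence was available. Z-scores were averaged across arrays of the same protein sequence at different concentrations or buffers and across linkers.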
# [2] = target: Fuc(a1-2)[GalNAc(a1-3)]Gal(b1-3)GlcNAc(b1-6)GalNAc
# How it was run: as §1
# [3] = target: Fuc(a1-2)[GalNAc(a1-3)]Gal(b1-4)Glc
# How it was run: as §1
# [4] = target: Fuc(a1-2)[GalNAc(a1-3)]Gal(b1-4)GlcNAc
# How it was run: as §1
# [5] = target: Fuc(a1-2)[GalNAc(a1-3)]Gal(b1-4)GlcNAc(b1-2)Man
# How it was run: as §1
# [6] = target: Fuc(a1-2)[GalNAc(a1-3)]Gal(b1-4)GlcNAc(b1-2)Man(a1-3)[Fuc(a1-2)[GalNAc(a1-3)]Gal(b1-4)GlcNAc(b1-2)Man(a1-6)]Man(b1-4)GlcNAc(b1-4)GlcNAc
# How it was run: as §1
# [7] = target: Fuc(a1-2)[GalNAc(a1-3)]Gal(b1-4)GlcNAc(b1-2)Man(a1-3)[Fuc(a1-2)[GalNAc(a1-3)]Gal(b1-4)GlcNAc(b1-2)Man(a1-6)]Man(b1-4)GlcNAc(b1-4)[Fuc(a1-6)]GlcNAc
# How it was run: as §1
# [8] = target: Fuc(a1-2)[GalNAc(a1-3)]Gal(b1-4)GlcNAc(b1-3)Gal(b1-4)GlcNAc
# How it was run: as §1
# [9] = target: Fuc(a1-2)[GalNAc(a1-3)]Gal(b1-4)GlcNAc(b1-3)Gal(b1-4)GlcNAc(b1-3)Gal(b1-4)GlcNAc
# How it was run: as §1
# [10] = target: Fuc(a1-2)[GalNAc(a1-3)]Gal(b1-4)GlcNAc(b1-3)GalNAc
# How it was run: as §1
# [11] = target: Fuc(a1-2)[GalNAc(a1-3)]Gal(b1-4)GlcNAc(b1-3)[Fuc(a1-2)[GalNAc(a1-3)]Gal(b1-4)GlcNAc(b1-6)]GalNAc
# How it was run: as §1
# [12] = target: Fuc(a1-2)[GalNAc(a1-3)]Gal(b1-4)GlcNAc(b1-6)GalNAc
# How it was run: as §1
# [13] = target: Fuc(a1-2)[GalNAc(a1-3)]Gal(b1-4)[Fuc(a1-3)]GlcNAc
# How it was run: as §1
# [14] = target: Fuc(a1-2)[GalNAc(a1-3)]Gal(b1-4)[Fuc(a1-3)]GlcNAc(b1-3)GalNAc
# How it was run: as §1
# [15] = target: Fuc(a1-2)[GalNAc(a1-4)]Gal(b1-4)GlcNAc
# How it was run: as §1
# [16] = target: Fuc(a1-2)[GalNAc(b1-3)]Gal
# How it was run: as §1
# [17] = target: Fuc(a1-3)GlcNAc
# How it was run: as §1
# [18] = target: Fuc(a1-3)[Gal(b1-4)]Glc6S
# How it was run: as §1
# [19] = target: Fuc(a1-3)[Gal(b1-4)]GlcNAc
# How it was run: as §1
# [20] = target: Fuc(a1-3)[Gal(b1-4)]GlcNAc(b1-2)Man
# How it was run: as §1
# [21] = target: Fuc(a1-3)[Gal(b1-4)]GlcNAc(b1-2)Man(a1-3)[Fuc(a1-3)[Gal(b1-4)]GlcNAc(b1-2)Man(a1-6)]Man(b1-4)GlcNAc(b1-4)GlcNAc
# How it was run: as §1
# [22] = target: Fuc(a1-3)[Gal(b1-4)]GlcNAc(b1-2)Man(a1-3)[Fuc(a1-3)[Gal(b1-4)]GlcNAc(b1-2)Man(a1-6)]Man(b1-4)GlcNAc(b1-4)[Fuc(a1-6)]GlcNAc
# How it was run: as §1
# [23] = target: Fuc(a1-3)[Gal(b1-4)]GlcNAc(b1-3)Gal(b1-3)[Fuc(a1-4)]GlcNAc
# How it was run: as §1
# [24] = target: Fuc(a1-3)[Gal(b1-4)]GlcNAc(b1-3)Gal(b1-4)[Fuc(a1-3)]GlcNAc
# How it was run: as §1
# [25] = target: Fuc(a1-3)[Gal(b1-4)]GlcNAc(b1-3)Gal(b1-4)[Fuc(a1-3)]GlcNAc(b1-3)Gal(b1-4)[Fuc(a1-3)]GlcNAc
# How it was run: as §1
# [26] = target: Fuc(a1-3)[Gal(b1-4)]GlcNAc(b1-3)GalNAc
# How it was run: as §1
# [27] = target: Fuc(a1-3)[Gal(b1-4)]GlcNAc(b1-6)GalNAc
# How it was run: as §1
# [28] = target: Fuc(a1-3)[Gal(b1-4)]GlcNAc(b1-6)[Gal(b1-3)GlcNAc(b1-3)]Gal(b1-4)Glc
# How it was run: as §1
# [29] = target: Fuc(a1-3)[Gal(b1-4)]GlcNAc6S
# How it was run: as §1
# [30] = target: Fuc(a1-3)[Gal3S(b1-4)]Glc
# How it was run: as §1
# [31] = target: Fuc(a1-3)[Gal3S(b1-4)]GlcNAc
# How it was run: as §1
# [32] = target: Fuc(a1-3)[Gal3S(b1-4)]GlcNAc6S
# How it was run: as §1
# [33] = target: Fuc(a1-3)[GalNAc(b1-4)]GlcNAc
# How it was run: as §1
# [34] = target: Fuc(a1-3)[GalNAc(b1-4)]GlcNAc6S
# How it was run: as §1
# [35] = target: Fuc(a1-4)GlcNAc
# How it was run: as §1
# [36] = target: Fuc(b1-3)GlcNAc
# How it was run: as §1
# [37] = target: Gal(a1-2)Gal
# How it was run: as §1
# [38] = target: Gal(a1-3)Gal
# How it was run: as §1
# [39] = target: Gal(a1-3)Gal(b1-3)GlcNAc
# How it was run: as §1
# [40] = target: Gal(a1-3)Gal(b1-3)GlcNAc(b1-2)Man
# How it was run: as §1
# [41] = target: Gal(a1-3)Gal(b1-3)GlcNAc(b1-2)Man(a1-3)[Gal(a1-3)Gal(b1-3)GlcNAc(b1-2)Man(a1-6)]Man(b1-4)GlcNAc(b1-4)GlcNAc
# How it was run: as §1
# [42] = target: Gal(a1-3)Gal(b1-3)GlcNAc(b1-3)GalNAc
# How it was run: as §1
# [43] = target: Gal(a1-3)Gal(b1-3)GlcNAc(b1-6)GalNAc
# How it was run: as §1
# [44] = target: Gal(a1-3)Gal(b1-3)[Fuc(a1-4)]GlcNAc(b1-2)Man(a1-3)[Gal(a1-3)Gal(b1-3)[Fuc(a1-4)]GlcNAc(b1-2)Man(a1-6)]Man(b1-4)GlcNAc(b1-4)GlcNAc
# How it was run: as §1
# [45] = target: Gal(a1-3)Gal(b1-4)Glc
# How it was run: as §1
binder,measurement,setting,value
B1,glycan array binding signal (z-score),[1],-0.331
same,glycan array binding signal (z-score),[2],-0.478
same,glycan array binding signal (z-score),[3],-0.442
same,glycan array binding signal (z-score),[4],-0.5
same,glycan array binding signal (z-score),[5],-0.507
same,glycan array binding signal (z-score),[6],0.007
same,glycan array binding signal (z-score),[7],-0.312
same,glycan array binding signal (z-score),[8],-0.338
same,glycan array binding signal (z-score),[9],0.355
same,glycan array binding signal (z-score),[10],-0.392
same,glycan array binding signal (z-score),[11],-0.362
same,glycan array binding signal (z-score),[12],-0.533
same,glycan array binding signal (z-score),[13],-0.257
same,glycan array binding signal (z-score),[14],0.619
same,glycan array binding signal (z-score),[15],-0.383
same,glycan array binding signal (z-score),[16],-0.158
same,glycan array binding signal (z-score),[17],-0.438
same,glycan array binding signal (z-score),[18],0.383
same,glycan array binding signal (z-score),[19],-0.348
same,glycan array binding signal (z-score),[20],-0.427
same,glycan array binding signal (z-score),[21],-0.41
same,glycan array binding signal (z-score),[22],0.148
same,glycan array binding signal (z-score),[23],-0.469
same,glycan array binding signal (z-score),[24],-0.282
same,glycan array binding signal (z-score),[25],-0.139
same,glycan array binding signal (z-score),[26],-0.415
same,glycan array binding signal (z-score),[27],-0.407
same,glycan array binding signal (z-score),[28],-0.443
same,glycan array binding signal (z-score),[29],1.12
same,glycan array binding signal (z-score),[30],-0.449
same,glycan array binding signal (z-score),[31],-0.258
same,glycan array binding signal (z-score),[32],0.946
same,glycan array binding signal (z-score),[33],-0.227
same,glycan array binding signal (z-score),[34],0.386
same,glycan array binding signal (z-score),[35],1.89
same,glycan array binding signal (z-score),[36],-0.367
same,glycan array binding signal (z-score),[37],-0.402
same,glycan array binding signal (z-score),[38],-0.036
same,glycan array binding signal (z-score),[39],-0.369
same,glycan array binding signal (z-score),[40],0.006
same,glycan array binding signal (z-score),[41],-0.065
same,glycan array binding signal (z-score),[42],-0.383
same,glycan array binding signal (z-score),[43],-0.144
same,glycan array binding signal (z-score),[44],0.029
same,glycan array binding signal (z-score),[45],-0.243

# Source: the supplement of paper PMC8728848
